From patent US11542311B2, “Fusion protein, preparation method therefor and application thereof in preparing ophthalmic disease treatment, anti-inflammation and anti-tumor medicament” (JIANGSU RONGTAI BIOTECH CO., LTD., priority 2017, dated 2023)
Marks after values point to notes of the source that are not given here.

Key:
[1] = system: gastric cancer cell MGC-803; test: MTT assay, proliferation of gastric cancer cell MGC-803; assay type: cell-based; details: 48 h
Method: (§1) The MTT assay was used to detect the inhibitory effect of the integrin blocker fusion protein obtained in Example 1 on the proliferation of various tumor cells, including melanoma cell B16F10, gastric cancer cell MGC-803, lung cancer cell A549, liver cancer cell Hep-G2, breast cancer cell MDA-MB-231, colon cancer cell HCT-116, human glioma U87, and cervical cancer cell Hela.
(§2) The tumor cells were cultured in a 5% CO2 incubator at 37° C. to a density of 90% or more, and collected by trypsinization. The cells were resuspended in the culture liquid and counted under a microscope. The cell concentration was adjusted to 3.0×10^4 cells/mL. The cell suspension was inoculated into a 96-well plate, 100 μL per well, and cultured overnight in a 5% CO2 incubator at 37° C. The fusion proteins I, II, and the positive drug Taxol were diluted with the culture liquid to respective predetermined concentrations. After the cells were fully adhered, each dilution was added to a 96-well plate, 100 μL per well, respectively. The integrin blocker fusion proteins I and II were added as an administration group, Taxol was used as a positive control group, and the culture liquid without any drug was used as a blank control group, and incubated in an 5% CO2 incubator at 37° C. for 48 hours. 20 μL of 5 mg/mL MTT was added to each well of a 96-well plate, and incubation was continued for 4 hours. The medium was aspirated and 100 μL of DMSO per well were added to dissolve. The absorbance was measured at 570 nm with a microplate reader with a reference wavelength of 630 nm, and the proliferation inhibition (PI) was calculated. The formula is as follows: […]
(§3) where Ntest is the OD value of the test group and Ncontrol is the OD value of the blank control group.
(§4) The test was repeated 5 times independently. The results obtained from the test were calculated as mean±SD, and statistical t-test was performed. P<0.05 was considered as significant difference, and P<0.01 was considered as an extremely significant difference.

tampon granuloma in rat = test: Subacute inflammation of tampon granuloma in rat; details: 64 mg/kg by injection every 5 days, day 7; for PI (%): granuloma
[2] = system: angiogenesis of chicken embryo chorioallantoic membrane; test: Chicken embryo chorioallantoic membrane (CAM) angiogenesis assay; assay type: in vivo, White Leghorn chicken embryos; details: 72 hours; for PI (%): CAM blood vessels; for Blood vessel number: CAM
Method: The study has shown that the biosynthesis rate of collagen reached the maximum on the 8th to 11th day of chicken embryo development, which was the most vigorous stage of angiogenesis, and the body's immune system had not yet been fully established at that time, and thus the chicken embryos developed to the 8th day was selected to be administered. […] The following steps were used:
(1) The White Leghorn chicken embryos on day 6 were cultured in a 37° C. incubator at 60%-70% humidity for two days.
(2) A 1.0 cm×1.0 cm window was drilled above the chicken embryo air sac, and the inner membrane was torn off with forceps to expose the chorioallantoic membrane. Lens paper having a diameter of 5 mm was used as a loading carrier, and was placed on the chorioallantoic membrane of the chicken embryo air sac. Filter paper with PBS was used as a blank group, and an administration group was added with different doses of fusion protein.
(3) The chicken embryo air sac was sealed with a sterile transparent tape, and after culturing at 37° C. for 72 hours, the chicken embryo air sac was opened, and a fixative (formaldehyde:acetone=1:1) was added for fixation for 15 minutes. The chorioallantoic membrane to which the lens paper was adhered was taken out, the distribution of the new blood vessels was observed, and the new blood vessels were counted and photographed. Five replicates were set for each dose and the results were statistically analyzed.

[3] = system: retinal blood vessels in OIR mice; test: Retinal blood vessels in OIR mice; assay type: in vivo, C57/B16 mice
[4] = system: cervical cancer cell Hela; test: MTT assay, proliferation of cervical cancer cell Hela; assay type: cell-based; details: 48 h
Method: as §1, §2, §3, §4

[5] = system: neovascularization in premature rat retinopathy model; test: Neovascularization in premature rat retinopathy model (oxygen-induced); assay type: in vivo; details: neonatal rat, 100 μg intravitreal day 7, day 14
[6] = 64 μg intravitreal day 13, evaluated day 17

B1: Protein I: Fc fusion protein Fc-IL4DM-HM3: IgG1-Fc, IL-4 and HM-3 joined by flexible (F) linker; SEQ ID NO: 1 (protein)
chain: [gap - human IgG1 Fc]GGGGSGGGGSGGGGSHKCDITLQEIIKTLNSLTEQKTLCTELTVTDIFAASKNTTEKETFCRAATVLRQFYSHHEKDTRCLGATAQQFHRHKQLIRFLKRLDRNLWGLAGLNSCPVKEANQSTLENFLERLKTIMDEKDSKCSSGGGGSGGGGSGGGGSIVRRADRAAVPGGGGRGD
[1]; 1 μg/mL
  A570 nm/A630 nm: 0.8701 ± 0.0456
  PI (%): 8.92%
[1]; 2 μg/mL
  A570 nm/A630 nm: 0.8301 ± 0.0343
  PI (%): 13.11%
[1]; 4 μg/mL
  A570 nm/A630 nm: 0.7531 ± 0.0236
  PI (%): 21.17%
[1]; 8 μg/mL
  A570 nm/A630 nm: 0.6859 ± 0.0395
  PI (%): 28.20%
[1]; 16 μg/mL
  A570 nm/A630 nm: 0.5692 ± 0.0222
  PI (%): 40.42%
[1]; 32 μg/mL
  A570 nm/A630 nm: 0.4365 ± 0.0239
  PI (%): 54.31%
[1]; 64 μg/mL
  A570 nm/A630 nm: 0.3068 ± 0.0398
  PI (%): 67.88%
[1]; 128 μg/mL
  A570 nm/A630 nm: 0.1696 ± 0.0431
  PI (%): 82.25%
[1]; 256 μg/mL
  A570 nm/A630 nm: 0.0945 ± 0.0249
  PI (%): 90.11%
Tampon granuloma in rat
  Granuloma (mg)/Weight (100 g): 0.37 ± 0.09 mg/100 g
  PI (%): 19.57%
[2]; 8 μg
  PI (%): 32.58%
  Blood vessel number: 89 ± 8
[2]; 32 μg
  PI (%): 38.64%
  Blood vessel number: 81 ± 3
[2]; 128 μg
  PI (%): 58.33%
  Blood vessel number: 55 ± 10
[2]; 128 μg, listed as fusion protein I
  PI (%): ~50%
[3]; [6]
  Area (mm^2) of neovascular clusters: 0.111 ± 0.027* mm^2
  Reduce (%): 52.97%
[3]; 64 μg intravitreal day 13, evaluated day 17, listed as fusion protein I
  Reduce (%): 52.97%
[4]; 1 μg/mL
  A570 nm/A630 nm: 1.1729 ± 0.0183
  PI (%): 8.28%
[4]; 2 μg/mL
  A570 nm/A630 nm: 1.0658 ± 0.0295
  PI (%): 16.66%
[4]; 4 μg/mL
  A570 nm/A630 nm: 0.9739 ± 0.0238
  PI (%): 23.84%
[4]; 8 μg/mL
  A570 nm/A630 nm: 0.9526 ± 0.0166
  PI (%): 25.51%
[4]; 16 μg/mL
  A570 nm/A630 nm: 0.8248 ± 0.0105
  PI (%): 35.50%
[4]; 32 μg/mL
  A570 nm/A630 nm: 0.7109 ± 0.0119
  PI (%): 44.41%
[4]; 64 μg/mL
  A570 nm/A630 nm: 0.5643 ± 0.0265
  PI (%): 55.87%
[4]; 128 μg/mL
  A570 nm/A630 nm: 0.3629 ± 0.0215
  PI (%): 71.62%
[4]; 256 μg/mL
  A570 nm/A630 nm: 0.1461 ± 0.0350
  PI (%): 88.58%
[5]
  Nucleus number of vascular endothelial cells: 6.693 ± 2.109
[5]; listed as fusion protein I
  Nucleus number of vascular endothelial cells: 6.693±2.109

B2: Protein II: Fc fusion protein Fc-IL4DM-HM3: IgG1-Fc, IL-4 and HM-3 joined by rigid (R) linker; SEQ ID NO: 2 (protein)
chain: [gap - human IgG1 Fc]AEAAAKEAAAKEAAAKEAAAKAHKCDITLQEIIKTLNSLTEQKTLCTELTVTDIFAASKNTTEKETFCRAATVLRQFYSHHEKDTRCLGATAQQFHRHKQLIRFLKRLDRNLWGLAGLNSCPVKEANQSTLENFLERLKTIMDEKDSKCSSAEAAAKEAAAKEAAAKEAAAKAIVRRADRAAVPGGGGRGD
[1]; 1 μg/mL
  A570 nm/A630 nm: 0.8821 ± 0.0306
  PI (%): 7.66%
[1]; 2 μg/mL
  A570 nm/A630 nm: 0.7852 ± 0.0125
  PI (%): 17.81%
[1]; 4 μg/mL
  A570 nm/A630 nm: 0.7049 ± 0.0323
  PI (%): 26.21%
[1]; 8 μg/mL
  A570 nm/A630 nm: 0.7421 ± 0.0460
  PI (%): 22.32%
[1]; 16 μg/mL
  A570 nm/A630 nm: 0.6342 ± 0.0302
  PI (%): 33.61%
[1]; 32 μg/mL
  A570 nm/A630 nm: 0.4523 ± 0.0271
  PI (%): 52.65%
[1]; 64 μg/mL
  A570 nm/A630 nm: 0.3796 ± 0.0133
  PI (%): 60.26%
[1]; 128 μg/mL
  A570 nm/A630 nm: 0.2276 ± 0.0511
  PI (%): 76.18%
[1]; 256 μg/mL
  A570 nm/A630 nm: 0.1112 ± 0.0115
  PI (%): 88.36%
Tampon granuloma in rat
  PI (%): 17.39%
[2]; 8 μg
  PI (%): 20.45%
  Blood vessel number: 105 ± 12
[2]; 32 μg
  PI (%): 34.85%
  Blood vessel number: 86 ± 13
[2]; 128 μg
  PI (%): 47.73%
  Blood vessel number: 69 ± 8
[2]; 128 μg, listed as protein II
  PI (%): ~50%
[3]; [6]
  Area (mm^2) of neovascular clusters: 0.153 ± 0.022* mm^2
  Reduce (%): 35.17%
[3]; 64 μg intravitreal day 13, evaluated day 17, listed as fusion protein II
  Reduce (%): 35.17%
[4]; 1 μg/mL
  A570 nm/A630 nm: 1.1066 ± 0.0282
  PI (%): 13.47%
[4]; 2 μg/mL
  A570 nm/A630 nm: 1.0001 ± 0.0162
  PI (%): 21.72%
[4]; 4 μg/mL
  A570 nm/A630 nm: 0.9368 ± 0.0835
  PI (%): 26.74%
[4]; 8 μg/mL
  A570 nm/A630 nm: 0.9812 ± 0.0179
  PI (%): 23.27%
[4]; 16 μg/mL
  A570 nm/A630 nm: 0.8276 ± 0.0395
  PI (%): 35.28%
[4]; 32 μg/mL
  A570 nm/A630 nm: 0.7018 ± 0.0133
  PI (%): 45.12%
[4]; 64 μg/mL
  A570 nm/A630 nm: 0.5845 ± 0.0499
  PI (%): 54.29%
[4]; 128 μg/mL
  A570 nm/A630 nm: 0.3792 ± 0.0213
  PI (%): 70.35%
[4]; 256 μg/mL
  A570 nm/A630 nm: 0.1456 ± 0.0845
  PI (%): 88.61%
[5]
  Nucleus number of vascular endothelial cells: 7.333 ± 1.263
[5]; listed as fusion protein II
  Nucleus number of vascular endothelial cells: 7.333±1.263
